# The whole screen tested about 310,000 compounds, of which about 14,000 (4.5%) showed an effect of 50% or more. Effects have a minus sign here. The list shows a part of the results.
# Target: human ether-à-go-go-related gene (hERG) potassium channel (human, UniProt Q12809)
# Test: primary screen, population patch clamp on CHO cells stably expressing hERG
# 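Note: peak tail current of the secondary pulse compared with the same well before compound.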
# Sequence of human ether-à-go-go-related gene (hERG) potassium channel (Q12809 whole entry, looked up): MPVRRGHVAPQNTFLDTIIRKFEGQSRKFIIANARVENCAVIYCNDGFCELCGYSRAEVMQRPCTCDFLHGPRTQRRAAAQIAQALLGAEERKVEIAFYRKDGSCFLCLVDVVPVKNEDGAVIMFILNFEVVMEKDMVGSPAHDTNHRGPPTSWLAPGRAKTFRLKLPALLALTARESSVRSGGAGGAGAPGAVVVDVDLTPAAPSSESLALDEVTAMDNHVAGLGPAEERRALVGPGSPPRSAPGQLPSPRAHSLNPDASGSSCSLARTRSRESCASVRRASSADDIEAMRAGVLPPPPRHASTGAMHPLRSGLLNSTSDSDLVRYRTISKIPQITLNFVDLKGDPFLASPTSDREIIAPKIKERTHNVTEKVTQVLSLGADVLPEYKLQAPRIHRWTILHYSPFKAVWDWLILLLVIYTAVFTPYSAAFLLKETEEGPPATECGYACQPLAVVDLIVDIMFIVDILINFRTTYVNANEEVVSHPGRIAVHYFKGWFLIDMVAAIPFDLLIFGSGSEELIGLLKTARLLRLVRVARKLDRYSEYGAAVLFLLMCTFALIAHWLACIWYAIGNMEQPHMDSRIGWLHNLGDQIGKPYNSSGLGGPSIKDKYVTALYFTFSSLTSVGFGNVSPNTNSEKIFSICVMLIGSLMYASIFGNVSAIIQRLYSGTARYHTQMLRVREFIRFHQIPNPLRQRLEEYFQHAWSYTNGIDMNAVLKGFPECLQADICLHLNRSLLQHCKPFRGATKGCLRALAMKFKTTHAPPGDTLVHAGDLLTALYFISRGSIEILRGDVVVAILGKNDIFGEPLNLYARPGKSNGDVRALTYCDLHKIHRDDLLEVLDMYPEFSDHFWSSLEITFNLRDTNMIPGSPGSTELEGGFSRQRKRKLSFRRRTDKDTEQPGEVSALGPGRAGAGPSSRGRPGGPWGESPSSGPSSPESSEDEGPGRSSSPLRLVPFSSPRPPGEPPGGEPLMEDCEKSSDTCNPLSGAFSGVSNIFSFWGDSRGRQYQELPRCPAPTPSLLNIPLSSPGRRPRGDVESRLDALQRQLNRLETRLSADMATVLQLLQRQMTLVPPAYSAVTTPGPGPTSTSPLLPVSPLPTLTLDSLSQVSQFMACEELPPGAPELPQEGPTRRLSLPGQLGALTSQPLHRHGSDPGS
row,SMILES,"hERG current change (%, negative = inhibition) at 10uM"
1,COc1cccc(Cn2cnc3c(sc4nc(C)cc(C)c43)c2=O)c1,12.2%
2,COc1ccccc1-c1cc(-c2ccc(C)cc2)nc(SCc2nnc(-c3ccccc3)o2)c1C#N,18.3%
3,Cc1ccc(S(=O)(=O)N(CC(=O)NCc2ccccc2Cl)C(=O)N2CCN(C)CC2)cc1,-6.5%
4,N/C(=N\OC(=O)CSc1ccccc1)c1ccncc1,0.55%
5,COC(=O)c1ccc(/C=N/NC(=O)CC(=O)NC2CCCCC2)cc1,22%
6,COc1ccccc1/C=C1\SC(=S)N(CCC(=O)NCCCn2ccnc2)C1=O,-44.7%
7,COc1ccc(CCNC(=O)COc2ccc(-c3ccc(C)cc3)cc2)cc1OC,-9.64%
8,COc1ccc(-c2nc3n(n2)C(c2ccncc2)C(C(N)=O)=C(C)N3)cc1 (stereo not shown),0.391%
9,CCN(Cc1cccs1)C(=O)c1cccc(S(=O)(=O)N2CCN(C)CC2)c1,-14.1%
10,CC1CCc2[nH]c3ccc(C(=O)N(C)CC(=O)Nc4ccccc4Br)cc3c2C1 (stereo not shown),7.84%
11,CC(=O)Nc1ccc(S(=O)(=O)Nc2nc3ccccc3nc2Nc2cccc(O)c2)cc1,10.7%
12,COc1ccc(Nc2nc(C(=O)NCc3ccco3)cs2)cc1,-14.4%
13,O=C(O)c1cccc(-c2ccc(/C=c3/sc4nc5ccccc5n4c3=O)o2)c1,8.79%
14,O=C(NN=C1CCCCCCC1)c1ccc(F)cc1,1.58%
15,O=[N+]([O-])c1ccc(O)c(C=Nc2cccc3ncccc23)c1,7.86%
16,CCOC(=O)/C(=C/C=C1\Sc2cc(OCC)c(OCC)cc2N1CC)C(C)=O,3.32%
17,COc1ccc(-c2nnc(SCc3nc4ccccc4s3)n2C(C)C)cc1,-67.7%
18,CCC(NC(=S)NC1CCCCC1)c1ccc(C(C)C)cc1 (stereo not shown),13.7%
19,COc1ccccc1NC(=O)COC(=O)c1ccc2c(c1)OCCO2,0.67%
20,COC(=O)C1=CN(Cc2ccc(C)cc2)C=C(C(=O)OC)C1c1cc(OC)c(OC)c(OC)c1,-24.8%
21,CCOC(=O)c1cncc(C#CCO)c1,-3.9%
22,Cc1ccc(/C(O)=C/C(=O)C(=O)NC23CC4CC(CC(C4)C2)C3)cc1,4.44%

row,SMILES,"hERG current change (%, negative = inhibition) at 10uM"
1,COc1ccc(CNC(=O)COC(=O)c2ccc(C)c(S(=O)(=O)N3CCOCC3)c2)cc1OC,6.13%
2,COC(=O)CN1C(=O)C(C)(C)Oc2ccc(C(=O)NC3CC3)cc21,0.0728%
3,O=C(CSc1nnc(C2CC2)n1-c1ccccc1)NCCc1ccccc1,-7.68%
4,CCCCNC(=O)c1cn(C)c2ccc(S(=O)(=O)N3CCCC3)cc2c1=O,12.6%
5,COC(=O)C1=C(C)NC(=O)CC1c1ccc(C(=O)OC)cc1 (stereo not shown),16.7%
6,COc1ccc(S(=O)(=O)c2c(N)n(Cc3ccco3)c3nc4ccccc4nc23)cc1,-10.4%
7,c1cncc(-c2nn[nH]n2)c1,7.46%
8,C=CCn1c(SCC(=O)NC2CCCC2)nnc1-c1cccnc1,6.96%
9,CN1/C(=C\C=N\NC(=O)c2ccc(O)cc2)C(C)(C)c2ccccc21,-23.5%
10,CCC1CCCCN1Cc1ccc(CNC(=O)CCc2nnc3ccc(N4CCCCC4)nn23)o1 (stereo not shown),18.2%
11,c1cnc2ccc(C(c3nnnn3C3CCCC3)N3CCSCC3)cc2c1 (stereo not shown),-3.72%
12,CC(C(=O)Nc1ccccc1F)N1CCN(C)CC1.O=C(O)C(=O)O (stereo not shown),11.9%
13,COc1ccc(CCN2CCCC(CN(C)C(=O)c3ccoc3)C2)cc1 (stereo not shown),-72.9%
14,Cc1cccc(C)c1NC(=O)CN1CCN(CC(=O)NCC2(N3CCCCC3)CCCCC2)CC1,-9.24%
15,O=C(Cn1ncc2c([nH]c3ccccc32)c1=O)N1CCCCC1,10.6%
16,O=C(NCc1ccco1)c1ccc2c(c1)C(=O)N(C1CCCCC1)C2=O,-17.9%
17,CCOc1cc(C)c(Cl)cc1S(=O)(=O)n1cnc2ccccc21,-4.88%
18,Cc1cc(C(=O)N/N=C/C=C/c2cccc([N+](=O)[O-])c2)n[nH]1,-3.28%
19,CC(C)CCNC(=O)c1cccc(S(=O)(=O)N2CCc3ccccc32)c1,2.44%
20,CC(C)Cn1c(N)c(C(=O)COC(=O)c2cnccn2)c(=O)n(C)c1=O,-14.1%
21,O=C(Nc1cccc(-c2ccc(N3CCOCC3)nn2)c1)c1ccc([N+](=O)[O-])cc1,-11.4%
22,COC(=O)Cc1[nH]n(-c2nc3ccccc3s2)c(=O)c1C(C)=Nc1ccc(C)cc1,5.94%

row,SMILES,"hERG current change (%, negative = inhibition) at 10uM"
1,CCC(C(=O)Nc1ccsc1C(=O)OC)c1ccccc1 (stereo not shown),1.56%
2,CCOC(=O)C(NC(=O)c1ccc(OC)cc1)(N1CCCC1=O)C(F)(F)F (stereo not shown),6.11%
3,COc1ccc2c(O)c(-c3c(C)cc(C)cc3C)c(=O)[nH]c2c1,4.32%
4,O=C(NCC(=O)N(c1ccc(F)cc1)C(C(=O)NC1CCCC1)c1cccnc1)c1ccco1 (stereo not shown),13.5%
5,COc1ccc(CCNCc2csc3nc4ccccc4n23)cc1OC.Cl,-19.4%
6,CCOc1ccc2oc(C(=O)N(Cc3nnc(-c4ccccc4Cl)o3)C3CC3)c(C)c2c1,-20.9%
7,CC(=O)Nc1cccc(C(=O)OC(C)C(=O)Nc2ccc(S(=O)(=O)N3CCCC3)cc2)c1 (stereo not shown),9.05%
8,CCOc1ccc(/C(O)=C2/C(=O)C(=O)N(CCOCCO)C2c2cccnc2)cc1 (stereo not shown),-3.81%
9,CC(C)CNC(=O)C1CCCN(C(=O)NCc2ccccc2)C1 (stereo not shown),2.78%
10,Cc1ccc(C(=O)Nc2cccnc2)cc1S(=O)(=O)N1CCCC1,0.635%
11,O=C(Nc1ccc2c(c1)OCO2)c1sc2cc(Cl)ccc2c1Cl,-1.24%
12,O=C(NCCC1CCCCN1S(=O)(=O)c1ccc(F)cc1)C(=O)NCCN1CCOCC1 (stereo not shown),-22.5%
13,O=C(CSc1ccccn1)N1CCN(C(=O)CSc2ccccn2)CC1,-14.1%
14,O=C(O)c1cncc(Br)c1,27.3%
15,CCN(CC)S(=O)(=O)c1ccc(N2CCOCC2)c(NS(=O)(=O)c2ccc(OC)cc2)c1,7.66%
16,Cc1ccc(NC(=O)C2CCN(S(=O)(=O)c3ccc4c(c3)NC(=O)C(C)S4)CC2)cc1C (stereo not shown),11.8%
17,CCCCc1nnc(NC(=O)COC)s1,30.8%
18,Cc1cc(C(=O)CN2C(=O)C(=O)N(Cc3ccco3)C2=O)c(C)n1CCc1ccc(F)cc1,-21%
19,CCn1nc(C)cc1C(=O)Sc1cccc(Br)c1,8.89%
20,CCOc1ncccc1C(=O)NNC(=O)c1csc(N2CCOCC2)n1,7.98%
21,COCCNC(=O)c1snc2ccc(Cl)cc12,13.9%
22,O=C(NNC(=O)c1ccc([N+](=O)[O-])cc1C(=O)O)c1ccncc1,20.4%

row,SMILES,"hERG current change (%, negative = inhibition) at 10uM"
1,CN(C(=O)COC(=O)Cc1c(F)cccc1Cl)c1c(N)n(Cc2ccccc2)c(=O)[nH]c1=O,8.76%
2,Cc1cnc(C(=O)OCC(=O)Nc2cccc(Cl)c2)cn1,19.8%
3,CCN(CC)C(=O)Oc1ccc2c(c1)O/C(=C\c1ccco1)C2=O,-29.2%
4,Cc1cc(C)n(CC(O)Cn2c3ccccc3c3ccccc32)n1.[Cl-] (stereo not shown),-2.28%
5,Cc1cc(C)c(Cn2c(=O)n(CCCC(=O)NCc3ccco3)c(=O)c3ccccc32)c(C)c1,13.2%
6,CC(NC(=O)c1ccc(S(=O)(=O)C(F)F)cc1)c1ccccc1 (stereo not shown),2.57%
7,Cc1ccc(CNCC(O)(c2ccccc2)c2ccccc2)cc1,-33%
8,Cc1ccccc1N1CCN(S(=O)(=O)C[C@]23CCC(CC2NC(=O)[C@@H](N)CCS(C)(=O)=O)C3(C)C)CC1.Cl (stereo partly shown),5.91%
9,COc1cccc(SCc2noc(C(=O)NCC3CCCO3)c2C(=O)O)c1 (stereo not shown),11.9%
10,Cc1ccc(C(C(=O)NC2CCCC2)N(C(=O)c2csnn2)c2cccc(F)c2)o1 (stereo not shown),18.5%
11,COCCCNC(=O)CCCC(=O)NCCCOC,17.3%
12,CC1CCc2c(sc3ncnc(SC(C)C(=O)NCC4CCCO4)c23)C1 (stereo not shown),-13.9%
13,Cc1cc(C)cc(OCC(=O)NNC(=O)CCN2C(=O)c3ccccc3C2=O)c1,-14.8%
14,Cc1cccc(CCNC(=O)CCc2nnc(CCc3ccccc3)o2)n1,13.4%
15,Clc1ccc(OCc2cc(-c3ccccc3)no2)c(Cl)c1,11.2%
16,CN(C)S(=O)(=O)c1cccc(NC(=O)COC(=O)COc2ccc(Br)cc2)c1,-19.5%
17,CC(C)(C)NC(=O)C(c1ccc(O)cc1)N(C(=O)Cn1nnc(-c2ccc(F)cc2)n1)c1ccccc1F (stereo not shown),-1.66%
18,CN(C)c1ccc(NC(=O)COC(=O)Cn2nnc3ccccc32)cc1,-13.9%
19,CC(=O)Nc1ccc(S(=O)(=O)N2CCc3c(Cl)cccc3C2)cc1,7.78%
